Measurements from patent publication US20070014803A1 (ARBOR VITA, published 2007).

Biological target: T1, HIV-1 Peptide 1904 (HIV-1)
T1 construct: also called HIV peptide 1904
Test: MATRIX screen of GST-PDZ array, modified G assay ELISA; 'Intensity of Hit'

B1: GoRASP1 d1, GST fusion (other)
chain: MGLGVSAEQPAGGAEGFHLHGVQENSPAQQAGLEPYFDFIITIGHSRLNKENDTLKALLKANVEKPVKLEVFNMKTMRVREVEVVPSNMWGGQGLLGASVRFCSFRRASE
notes: also called GORASP1 (PDZ #1)
  binding result: binds
